Data as given in PubChem BioAssay (NCATS).
The shares of active, inactive and inconclusive entries below differ from those in the screen. For some of these results: Where the call is inconclusive, the potency comes from a doubtful curve fit. Activity calls are given as the source filed them. Unless noted, calls follow the shape of the dose curve; as a rule, active = well fitted curve in the direction sought with a large enough effect; inconclusive = small, poorly fitted or top-dose-only effect, or another doubt; inactive = no such curve, though single readings can be large; an effect the other way counts as inactive or inconclusive.

Assays:
[1] = target: Aldehyde dehydrogenase, mitochondrial (Homo sapiens) (UniProt P05091); experiment: qHTS for Inhibitors of the Aldehyde Dehydrogenase Family (ALDH2) Confirmatory screens (AID 2061303; active = well fitted inhibition curve with a large enough effect; inconclusive = small, poorly fitted or top-dose-only effect; inactive = no such curve, though single readings can be large or run the other way; title and protocol of this record describe different tests; also: nearly all actives have a fitted effect of over 45% in size; also: potency is read from the fitted curve at half-maximal effect; as to activity change, negative = inhibition: % is scaled to controls: 0 for no effect and ±100 for the full control effect); conditions: ALDH inhibition qHTS; activity change, negative = inhibition: at 45.4 µM (top of the series)
[2] = target: Retinaldehyde dehydrogenase 3 (Homo sapiens) (UniProt P47895); experiment: qHTS for Inhibitors of the Aldehyde Dehydrogenase Family (ALDH1A3) Confirmatory screens (AID 2061311); conditions: activity change, negative = inhibition: at 46 µM (top of the series); also: nearly all actives have a fitted effect of over 60% in size; also: potency is read from the fitted curve at half-maximal effect; as to activity change, negative = inhibition: % is scaled to controls: 0 for no effect and ±100 for the full control effect
[3] = target: Aldehyde dehydrogenase 1A1 (Homo sapiens) (UniProt P00352); experiment: qHTS for Inhibitors of the Aldehyde Dehydrogenase Family (ALDH1A1) Confirmatory screens (AID 2061316); conditions: activity change, negative = inhibition: at 47.3 µM (top of the series); also: nearly all actives have a fitted effect of over 65% in size; also: potency is read from the fitted curve at half-maximal effect; as to activity change, negative = inhibition: % is scaled to controls: 0 for no effect and ±100 for the full control effect
[4] = target: Retinal dehydrogenase 2 (Homo sapiens) (UniProt O94788); experiment: qHTS for Inhibitors of the Aldehyde Dehydrogenase Family (ALDH1A2) Confirmation screens (AID 2061314); conditions: activity, negative = inhibition: at 45.9 µM (top of the series) unless noted; also: nearly all actives have a fitted effect of over 65% in size; also: potency is read from the fitted curve at half-maximal effect; as to activity, negative = inhibition: % is scaled to controls: 0 for no effect and ±100 for the full control effect
[5] = target: Retinaldehyde dehydrogenase 3 (Homo sapiens) (UniProt P47895); experiment: qHTS for Inhibitors of the Aldehyde Dehydrogenase Family (ALDH1A3) Primary screen (AID 2061315); conditions: ALDH inhibition qHTS; activity change, negative = inhibition: at 56 µM (top of the series) unless noted; also: potency is read from the fitted curve at half-maximal effect;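 as to activity change, negative = inhibition: plate controls were DMSO vehicle for no effect and reference inhibitor for full effect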
[6] = target: Retinaldehyde dehydrogenase 3 (Homo sapiens) (UniProt P47895); experiment: qHTS for Inhibitors of the Aldehyde Dehydrogenase Family (ALDH1A3) Validation screen (AID 2061312); conditions: ALDH1A3 enzyme inhibition qHTS validation, fluorescence; activity change, negative = inhibition: at 84.7 µM (top of the series); also: potency is read from the fitted curve at half-maximal effect; nearly all actives have a fitted effect of over 45% in size
[7] = BET inhibitor-based combinations targeting novel dependencies in MECOM-rearranged (r) AML: OCI-AML3 cell line (AID 2202232); conditions: CellTiter-Glo luminescence, 48 h; Potency: OCI-AML3 viability; viability (% of control): at 46 µM (top of the series);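 also: plate controls were DMSO vehicle wells for no effect and wells without cells for full effect; nearly all actives have a fitted effect of over 35% in size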
Outline: (§1)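 Viability of cells (500 per well) is scored by luminescent CellTiter-Glo at 48 hr post-dosing. Eleven-point titrations are normalized to DMSO and empty controls and reduced to AUC values.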

[8] = BET inhibitor-based combinations targeting novel dependencies in MECOM-rearranged (r) AML: MV-4-11 cell line (AID 2202233); conditions: MV-4-11 AML viability, CellTiter-Glo luminescence, 48 h; viability, % of control: at 46 µM (top of the series) unless noted; also: potency is read from the fitted curve at half-maximal effect; nearly all actives have a fitted effect of over 45% in size
Outline: (§2)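 Using pin-tool transfer, drugs were added in 11 doses to cells (500/well), incubated 48 hr, and assessed with CellTiter-Glo. Z-AUC is a mean-centring transformation applied separately to each screened line.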

[9] = BET inhibitor-based combinations targeting novel dependencies in MECOM-rearranged (r) AML: HNT-34 cell line (AID 2202234); also: nearly all actives have a fitted effect of over 35% in size; also: potency is read from the fitted curve at half-maximal effect;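 as to viability (% of control): plate controls were vehicle wells for no effect and cell-free wells for full effect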
Outline: as §2

[10] = BET inhibitor-based combinations targeting novel dependencies in MECOM-rearranged (r) AML: AML-191 cell line (AID 2202236; also: potency is read from the fitted curve at half-maximal effect; nearly all actives have a fitted effect of over 35% in size)
Outline: as §1

[11] = BET inhibitor-based combinations targeting novel dependencies in MECOM-rearranged (r) AML: AML-194 cell line (AID 2202237; also: potency is read from the fitted curve at half-maximal effect; nearly all actives have a fitted effect of over 40% in size)
Outline: as §1

[12] = BET inhibitor-based combinations targeting novel dependencies in MECOM-rearranged (r) AML: SET-2 cell line (AID 2202231); conditions: SET-2 AML cells viability, CellTiter-Glo luminescence, 48 h; viability: hits give low values, concentration not given here;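 also: plate controls were DMSO treated cells for no effect and wells without cells for full effect; nearly all actives have a fitted effect of over 35% in size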
Outline: as §1

[13] = qHTS for Inhibitors of the Aldehyde Dehydrogenase Family (ALDH1A2, ALDH1A3, ALDH2, ALDH3A1) (AID 2061307); conditions: ALDH inhibition qHTS; activity change, negative = inhibition: at 50.3 µM (top of the series) unless noted; also: test system not described further here; potency is read from the fitted curve at half-maximal effect; nearly all actives have a fitted effect of over 50% in size
Tags tell the direction and shape of the fitted curve.

With O=C1NS(=O)(=O)c2cc(Br)ccc21 the Potency [1] was “inactive”, the activity change, negative = inhibition [2] was inconclusive: -65.3% [inhibitor] and the Potency [3] was “inactive”.

For CN(C)CCCNC(=O)c1ccc(-c2cnc3c(O)cccc3c2)cc1, the Potency [1] was inconclusive: 17.9 µM [inhibitor, partial curve, poor fit], the Potency [2] was inconclusive: 22.5 µM [inhibitor, partial curve] and the Potency [3] was inconclusive: 25.2 µM [inhibitor, partial curve, poor fit].

With Fc1cc(Nc2nc(-c3ccncc3)nc3ccccc23)ccc1N1CCNCC1 the Potency [1] was “inactive”, the Potency [2] was inconclusive: 14.2 µM [inhibitor, partial curve] and the Potency [3] was inconclusive: 10.1 µM [inhibitor, partial curve].

In the case of COC(=O)c1ccc(O)c2ncc(N3CC[C@H](N)C3)cc12, the Potency [1] is reported as inconclusive: 4.49 µM [inhibitor, partial curve], the Potency [2] is reported as active: 12.7 µM and the Potency [3] is reported as active: 11.3 µM.

For Cc1ccc(-n2c(=O)c3c(cnn3C)n(CC(=O)Nc3ccccc3C)c2=O)cc1, the Potency [1] was “inactive”, the Potency [2] was active: 22.4 µM and the Potency [3] was “inactive”.

In the case of COc1ccc(OC)c(-c2nnc3n2N=C(c2ccc(OC)c(OCC4CC4)c2)CS3)c1, the Potency [1] is reported as “inactive” and the Potency [4] is reported as inconclusive: 31.8 µM [inhibitor, single point].

With Cc1occc1-c1ccc2ncnc(NCCc3cnc[nH]3)c2c1 the Potency [1] was inconclusive: 0.0398 µM [inhibitor, full curve, poor fit], the Potency [2] was active: 3.57 µM and the Potency [5] was “inactive”. For the same molecule, the Potency [3] was inconclusive: 10.1 µM [inhibitor, full curve].

With CCn1cc2nc(SCc3cccc(C)c3)n(CCc3ccccc3)c(=O)c2n1 the Potency [1] was active: 28.2 µM, the Potency [2] was active: 1.26 µM and the Potency [3] was inconclusive: 28.2 µM [inhibitor, partial curve].

With O=C(NCC(=O)N1CCCC1)Nc1ccc2ccccc2c1 the Potency [1] was inconclusive: 12.7 µM [inhibitor, partial curve], the Potency [6] was active: 3.55 µM and the Potency [4] was inconclusive: 12.7 µM [inhibitor, partial curve, poor fit]. The Potency [5] was active: 2.82 µM.

For CC(=O)OCC(=O)[C@@]1(O)[C@H](C)C[C@H]2[C@@H]3C=C(C)C4=Cc5c(cnn5-c5ccccc5)C[C@]4(C)[C@@H]3[C@@H](O)C[C@@]21C, the Potency [1] was “inactive”, the Potency [2] was inconclusive: 31.8 µM [inhibitor, partial curve, poor fit] and the Potency [4] was “inactive”. The Potency [7] was “inactive”, the Potency [8] was inconclusive: 2.35 µM [inhibitor, partial curve, poor fit] and the Potency [9] was “inactive”. The Potency [10] was inconclusive: 0.0417 µM [inhibitor, full curve, poor fit] and the Potency [11] was inconclusive: 0.0186 µM [inhibitor, full curve, poor fit].

In the case of COc1ccc(C2Nc3ccccc3C(=O)N2Cc2ccccc2)cc1COc1cccc(C(F)(F)F)c1 (stereo unspecified), the Potency [1] is reported as “inactive”, the Potency [2] is reported as inconclusive: 12.7 µM [inhibitor, partial curve] and the Potency [3] is reported as “inactive”.

In the case of Cc1cccc(C(=O)NCc2nnc3cc(-c4nc(C)no4)ccn23)c1, the Potency [1] is reported as inconclusive: 3.55 µM [inhibitor, full curve, poor fit], the Potency [2] is reported as “inactive” and the Potency [4] is reported as “inactive”. The Potency [3] was “inactive”.

With O=C(Nc1ccc(Cl)c(Cl)c1)Nc1nnc(NC2CCNCC2)s1 the Potency [1] was “inactive”, the Potency [4] was inconclusive: 22.5 µM [inhibitor, single point] and the Potency [5] was inconclusive: 14.1 µM [inhibitor, partial curve]. The Potency [3] was “inactive”.

In the case of CC(C)c1c(-c2cnn(C(C)(C)C)c2)nc2c(C#N)c[nH]n2c1=O, the Potency [1] is reported as “inactive” and the Potency [4] is reported as inconclusive: 0.0283 µM [inhibitor, full curve].

In the case of NC(=O)C1CCN(c2ncc(-c3ccc(Br)cc3)s2)CC1, the Potency [1] is reported as inconclusive: 31.6 µM [inhibitor, partial curve], the Potency [4] is reported as “inactive” and the Potency [3] is reported as active: 11.3 µM.

For CCC(=O)Nc1ccc(S(=O)(=O)NCc2ccc3c(c2)CCN3C(=O)c2ccc(C)cc2)cc1, the Potency [1] was inconclusive: 1.58 µM [inhibitor, full curve, poor fit], the Potency [4] was “inactive” and the Potency [3] was inconclusive: 4.58 µM [inhibitor, partial curve, poor fit].

In the case of O=C(CCCc1ccc2cccnc2n1)NCc1cc(-c2ccc(F)c(C(F)(F)F)c2)no1, the Potency [1] is reported as “inactive”, the Potency [4] is reported as “inactive” and the Potency [3] is reported as “inactive”. The viability [12] was inactive: 106%, the Potency [7] was “inactive” and the Potency [8] was inconclusive: 23.5 µM [inhibitor, single point]. For the same molecule, the Potency [9] was inconclusive: 18.6 µM [inhibitor, partial curve, poor fit].

In the case of CN(C)[C@H]1CCN(c2cccc(Nc3nn4c(=O)c5ccccc5nc4s3)c2)C1, the Potency [1] is reported as inconclusive: 8.96 µM [inhibitor, partial curve, poor fit], the Potency [4] is reported as inconclusive: 12.7 µM [inhibitor, full curve, poor fit] and the Potency [3] is reported as active: 5.04 µM.

For O=C1NS(=O)(=O)c2cc3c(cc21)C(=O)NS3(=O)=O, the Potency [1] was “inactive”, the Potency [4] was “inactive” and the Potency [3] was inconclusive: 22.5 µM [inhibitor, partial curve, poor fit].

For Cc1ccc(NC(=O)Cn2c(-c3ccc4c(c3)OCO4)cn(-c3ccccc3)c2=O)cc1C, the Potency [13] was inconclusive: 20 µM [inhibitor, partial curve, poor fit].

In the case of Cc1ccccc1Nc1nc(C#N)nc(NC2CCCC2)n1, the Potency [1] is reported as inconclusive: 11.3 µM [inhibitor, partial curve] and the Potency [3] is reported as inconclusive: 3.57 µM [inhibitor, partial curve, poor fit].

For O=C(O)c1ccc(O)c2ncc(N3CCCN(C4CCCC4)CC3)cc12, the Potency [1] was “inactive”, the Potency [4] was “inactive” and the Potency [5] was inconclusive: 22.4 µM [inhibitor, partial curve]. The Potency [3] was “inactive”.

With COc1ccc(C2Nc3ccccc3C(=O)N2Cc2ccccc2C(F)(F)F)cc1COc1ccc(NC(C)=O)cc1 (stereo unspecified) the Potency [1] was active: 0.316 µM, the Potency [4] was inconclusive: 12.7 µM [inhibitor, partial curve] and the Potency [5] was “inactive”. The Potency [3] was inconclusive: 17.9 µM [inhibitor, partial curve].

In the case of CCOC(=O)c1ccc(O)c2ncc(-c3ccc(C(=N)N)cc3)cc12, the Potency [1] is reported as “inactive”, the Potency [5] is reported as inconclusive: 8.91 µM [inhibitor, partial curve, poor fit] and the Potency [3] is reported as “inactive”.

With CCCCN(CCCNC(=S)NCCCc1cnc[nH]1)c1ccc(Br)cn1 the Potency [1] was active: 22.4 µM, the Potency [4] was active: 8.96 µM and the Potency [3] was “inactive”.

In the case of O=C(CCN1C(=O)CSc2ccccc21)Nc1ccc(OC(F)(F)F)cc1, the Potency [13] is reported as inconclusive: 14.1 µM [inhibitor, full curve, poor fit].

In the case of O=C(Nc1cccc2nn(-c3ccc(F)cc3)cc12)c1ccccn1, the Potency [1] is reported as inconclusive: 28.3 µM [inhibitor, partial curve, poor fit] and the Potency [3] is reported as active: 28.3 µM.

In the case of Cc1cc(Cl)ccc1COc1ccnn1-c1cc(C(=O)O)ccn1, the Potency [1] is reported as “inactive”, the Potency [4] is reported as “inactive” and the Potency [3] is reported as inconclusive: 22.5 µM [inhibitor, partial curve].

In the case of O=C(/C=C/c1ccc(O)c(O)c1)O[C@H]1[C@H](OC2CCCCC2O)O[C@H](CO)[C@@H](O)[C@@H]1O (stereo partly specified), the Potency [1] is reported as inconclusive: 5.51 µM [inhibitor, partial curve, poor fit], the Potency [4] is reported as inconclusive: 11 µM [inhibitor, partial curve, poor fit] and the Potency [5] is reported as inconclusive: 5.62 µM [inhibitor, partial curve, poor fit]. For the same molecule, the Potency [3] was inconclusive: 11 µM [inhibitor, partial curve, poor fit].

In the case of O=c1[nH]c2cccc(N3CCN(Cc4ccc(-c5ccccc5)cc4)CC3)c2o1, the Potency [1] is reported as “inactive”, the Potency [5] is reported as “inactive” and the Potency [3] is reported as “inactive”.

With O=C1Nc2ccccc2/C1=C/c1cccc(C(=O)O)c1 the activity change, negative = inhibition [1] was inconclusive: -100% [inhibitor], the Potency [4] was inconclusive: 5.65 µM [inhibitor, partial curve] and the Potency [5] was inconclusive: 10 µM [inhibitor, partial curve]. The Potency [3] was “inactive”.

For CCOc1ccc(S(=O)(=O)N2CCN(c3cccc(C(F)(F)F)c3)CC2)cc1OCC, the Potency [1] was inconclusive: 17.8 µM [inhibitor, partial curve, poor fit] and the Potency [4] was inconclusive: 3.16 µM [inhibitor, partial curve, poor fit].

With COc1ccc2c(c1)CCc1sc(NC(=O)c3ccc(Cl)cc3)nc1-2 the Potency [1] was active: 15.8 µM, the Potency [4] was inconclusive: 2.89 µM [inhibitor, full curve] and the Potency [3] was active: 4.58 µM.

In the case of Cc1ccc(Nc2nc(C#N)nc(NC3CCCC3)n2)cc1, the Potency [1] is reported as “inactive”, the Potency [4] is reported as inconclusive: 11.3 µM [inhibitor, partial curve, poor fit] and the Potency [3] is reported as inconclusive: 17.9 µM [inhibitor, partial curve, poor fit].

With CCCCN1C(=O)c2ccccc2NC1c1ccc(OC)c(COc2ccc(NC(C)=O)cc2)c1 (stereo unspecified) the Potency [1] was inconclusive: 31.6 µM [inhibitor, partial curve], the Potency [4] was inconclusive: 31.6 µM [inhibitor, partial curve] and the Potency [3] was inconclusive: 20.1 µM [inhibitor, partial curve, poor fit].

In the case of O=C1Nc2c(Cl)cccc2/C1=C\c1cc(Cl)c(O)c(Cl)c1, the Potency [1] is reported as inconclusive: 8.96 µM [inhibitor, partial curve] and the Potency [3] is reported as active: 7.12 µM.

In the case of Cc1ccc(OCCn2c(CCNC(=O)c3ccccc3C(F)(F)F)nc3ccccc32)cc1, the Potency [1] is reported as “inactive”, the Potency [4] is reported as “inactive” and the Potency [3] is reported as inconclusive: 28.3 µM [inhibitor, single point].

In the case of N#Cc1ccc(-c2ccc(CNc3ccc(N4CCCCC4)cc3)o2)cc1, the Potency [1] is reported as active: 0.0712 µM, the Potency [5] is reported as inconclusive: 5.01 µM [inhibitor, partial curve] and the Potency [3] is reported as active: 8.96 µM.
